Some of the results follow.
T1: UNK ZnF1-3 (human, UniProt Q9C0B0 31-174)
T1 sequence: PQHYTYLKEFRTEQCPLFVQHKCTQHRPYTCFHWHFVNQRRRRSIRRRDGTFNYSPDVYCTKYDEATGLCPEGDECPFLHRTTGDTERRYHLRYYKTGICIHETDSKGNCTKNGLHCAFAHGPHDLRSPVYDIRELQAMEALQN

B1: chr3:132390928:132390929:+_ENSG00000081307_ENST00000264991|hu_hu|FALSE|FALSE (ssRNA)
RNA: GGGAGUUCUACAGUCCGACGAUCACUGGCUGCACAAACACCUUCUCGUUUCAGAGUCUUUUCAUCAAUAUUUGCAGCAACUACAAGUGGUGGAGCACACGCAAAACAAGCAGAUUCUCCAGGAAUUAUAAGCUGUAUAUGCCCCAACAGAGGAUUGAGCAUCA
B2: chrX:154448470:154448471:+_ENSG00000155959_ENST00000286428|hu_mus|motif|central (ssRNA)
RNA: GGGAGUUCUACAGUCCGACGAUCAUCCAGCUUCUUUAACACUGUAUCUGCAGUCUCAUUCCCAGGCUGCUUCAUGAAAGAAUCGGCAUCUUCCACAAACACUGCUUCAGGAAUCCCUAAGUGGAGCCGCCGCCCGUUUCCAGCCAACAGAGGAUUGAGCAUCA
B3: chrX:70347820:70347821:+_ENSG00000184634_ENST00000374080|hu_mus|FALSE|FALSE (ssRNA)
RNA: GGGAGUUCUACAGUCCGACGAUCGAGCCCCGUGUAGGUGAAAGUGUGAGCGGCAGGGUUCUCCAGAGUGUCAAUCAUGAACUCCGGUGCCCAGCGCAUAUUGGAUUCCGAUGGCUCCACGUUACAGUAGAUGGUGUUCUUCACCAACAGAGGAUUGAGCAUCA
B4: chr3:179287964:179287965:+_ENSG00000136518_ENST00000429709|hu_hu|hu_hu_hu_mus_True|28_78 (ssRNA)
RNA: GGGAGUUCUACAGUCCGACGAUCCUUGAGUGGUGAGAUGGCCUCCAUGUUCUCCCUCGGAACACGCAGGGCAUUGGUGUCUAUGUAGUAGGUGGGCCCGCCCUGCUUGCCUUUAUCACCAUCAAUCUCCAUCAUUGUACUUCCCAACAGAGGAUUGAGCAUCA
B5: chr4:115894766:115894767:+_ENSMUSG00000028698_ENSMUST00000030464|mus_hu|mus_mus_mus_hu_True|1_48 (ssRNA)
RNA: GGGAGUUCUACAGUCCGACGAUCUUCCACACGGAAAUGUACUUCGGGUUUUCCAACGGCCAGUACCAGUCCGGCCAAACUACCCGAUGAGGACAAGCCCCCUCUCUCCUACAGAACACAACAAAAUGCCCCCGAACCCCGAACCAACAGAGGAUUGAGCAUCA
B6: chr14:35777207:35777208:+_ENSG00000100902_ENST00000261479|hu_hu|FALSE|FALSE (ssRNA)
RNA: GGGAGUUCUACAGUCCGACGAUCUUUGUCAGGUACUUUCUUCUGUGUGACAAUUACUGCACAGUCUUUCCCUCUGACAGCUACUGAUGUAAGGCCACCCUGGUUAAUAGCCUUAAAAGCAUAUUCUACUUGGUAGAGCCGACCCAACAGAGGAUUGAGCAUCA
B7: chr1:220276048:220276049:+_ENSG00000067704_ENST00000302637|hu_hu|hu_hu_hu_mus_True|48_58 (ssRNA)
RNA: GGGAGUUCUACAGUCCGACGAUCGCAAAUUGCCUGGUUGGCGGGAAUUGUCCAAGGCUGGGUGGUCCAAACUAAAAUACUAACAGGAGAUGAACCAUCUGUAAGAGACUCCAACUUCGGAGGAGGUCUCAGGAGGGGGAAUCUCAACAGAGGAUUGAGCAUCA
B8: chr7:149068622:149068623:-_ENSMUSG00000025139_ENSMUST00000001950|mus_hu|mus_mus_mus_hu_False|88_88 (ssRNA)
RNA: GGGAGUUCUACAGUCCGACGAUCGUGAGGCCUCUGAGUGUGGCUUGUGCUCUGCAGUGGGUUAGAGUUGUUAAUAUCACGGAACAUACCAUCUAGAACGUUCCAGUCCCGCCUGACACCUUCAUUCCCAAUGGAGAAGAAAUCCAACAGAGGAUUGAGCAUCA
B9: chr3:10015032:10015033:+_ENSMUSG00000027533_ENSMUST00000029046|mus_mus|mus_mus_mus_hu_True|78_108 (ssRNA)
RNA: GGGAGUUCUACAGUCCGACGAUCGUUGUUGCCAUCACAAGUGAUGAUACAAUCUGGCUUGGCCAUGGCGCCCAUUUUUCGCAAAGCUAUUCCCACUCCUAGCUCCUUCAUGUAUUCAUCAAAGCCUUUGCUGUCCACCAGGCGCAACAGAGGAUUGAGCAUCA
B10: chr2:242098653:242098654:+_ENSG00000115685_ENST00000406106|hu_hu|FALSE|FALSE (ssRNA)
RNA: GGGAGUUCUACAGUCCGACGAUCGUCGUAAAGAUCCAGCUCUCGAAGACUCUGUAGCUCCUCCAGAUUCUCAAUGCAUUUAAUUAAAUUUUGGCGGAGGCAGAGAGUCUUCACUUUCUUCAGUACCUCAAAUCCUUCAAUCUUCAACAGAGGAUUGAGCAUCA
B11: chr12:118855022:118855023:+_ENSG00000111707_ENST00000543473|hu_hu|motif|central (ssRNA)
RNA: GGGAGUUCUACAGUCCGACGAUCUACACUGGCCCCAAUUAGAAGUUCAAAAACAAAAAUUAAGUUAGGUAGUCAGACAUCGGUAAAUACUAGUAUCCGCAUGAAUGAAAACACCCUGGCUUUGGUAUGGCUACAGAAAUCCAUCAACAGAGGAUUGAGCAUCA
B12: chr17:64801638:64801639:+_ENSG00000154229_ENST00000413366|hu_mus|hu_hu_hu_mus_False|58_108 (ssRNA)
RNA: GGGAGUUCUACAGUCCGACGAUCUAUAAAUACAUAUACAUAUGUACACAUAUAUAGUAAAACCCUAGUUAAACGUGUAAACUAGCCAUUCAUUUUUAAAAUUACAUCUACAUUAAAAAAUUAAUAUAUCUGAUAGAGUGCCAGCAACAGAGGAUUGAGCAUCA
B13: chr5:4754414:4754415:-_ENSMUSG00000044674_ENSMUST00000054294|mus_mus|motif|central (ssRNA)
RNA: GGGAGUUCUACAGUCCGACGAUCGAGUAAGCAAAGUGUAUUGUUGAUUGUGUACAACUUUUAGAUUGCAAAGACACAUCGGAUUGCAGUUUGGCUAAAACCAGAAAACAGCGUUUCACUUGGAGUAACUCCACUUCACUGAAACAACAGAGGAUUGAGCAUCA
B14: chr18:58099821:58099822:+_ENSMUSG00000024597_ENSMUST00000115366|mus_hu|FALSE|FALSE (ssRNA)
RNA: GGGAGUUCUACAGUCCGACGAUCAUUUUCUUUCUUUGGUUUGGUAUUGAUAUCUCCUAGAACCAUGAUAUCAGAAAAGUCUAUCCGGAACUUGCUAAGCAAAGUAGCCAUCGCUCUCCGGUCAUGGUCUAUUCUGUUUAUCUUCAACAGAGGAUUGAGCAUCA

Target: T1, UNK ZnF1-3
Assay: nsRBNS (natural sequence RNA bind-n-seq); RBNS binding buffer (assumed for nsRBNS): 25 mM Tris pH 7.5, 150 mM KCl, 3 mM MgCl2, 0.01% Triton X-100, 500 ug/ml BSA, 20 U/ml SUPERase-In, 4 C; UNK is unkempt and MSI1 is Musashi-1; names of the RNAs are library labels; protein concentration not given here; high values mean tight binding

Row | Binder | binding signal
1 | B1 | 1.53 enrichment R
2 | B2 | 1.32 enrichment R
3 | B3 | 0.929 enrichment R
4 | B4 | 0.432 enrichment R
5 | B5 | 1.04 enrichment R
6 | B6 | 0.543 enrichment R
7 | B7 | 1.48 enrichment R
8 | B8 | 0.747 enrichment R
9 | B9 | 0.644 enrichment R
10 | B10 | 0.485 enrichment R
11 | B11 | 2.07 enrichment R
12 | B12 | 1.51 enrichment R
13 | B13 | 0.651 enrichment R
14 | B14 | 0.304 enrichment R
